Measurements taken from US20190322765A1 (Hoffmann-La Roche, published 2019).

T1: human IL-2R α-subunit, monomeric, with AcTev cleavage site and Avi His tag (human)
T1 construct: also called Hu IL-2R α; CD25
T1 chain: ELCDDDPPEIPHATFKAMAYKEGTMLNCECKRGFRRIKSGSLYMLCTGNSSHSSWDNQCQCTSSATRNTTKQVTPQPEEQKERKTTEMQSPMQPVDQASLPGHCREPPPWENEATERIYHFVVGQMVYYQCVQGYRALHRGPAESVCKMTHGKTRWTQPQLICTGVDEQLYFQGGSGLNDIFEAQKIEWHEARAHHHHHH


Assays:
human FAP-His = target: T2, human FAP-His (human, UniProt Q12884 27-760); assay: SPR, His-tagged human FAP captured via anti-His, apparent bivalent affinity (avidity), 25°C
T2 construct: also called Hu FAP; His-tagged human FAP; not shown: His tag

[1] = target: T1, human IL-2R α-subunit, monomeric, with …; assay: SPR, receptor on CM5, 25°C
[2] = target: T3, human IL-2R βγ heterodimer, subunit-Fc knobs-into-holes fusion (human); assay: SPR, receptor on CM5, 25°C, apparent KD, 1:1 fit
T3 construct: The entries may hold a leader peptide; also called Hu IL-2R βγ; human IL2-R β knob γ hole heterodimer

[3] = target: T4, human FAP expressed on stably transfected HEK293 cells (human, UniProt Q12884 1-760); assay: FACS on stably transfected HEK293 cells
T4 construct: whole, on cells

[4] = target: T1, human IL-2R α-subunit, monomeric, with …; assay: SPR, receptor on CM5, IL-2 analyte, 25°C, steady state
[5] = target: T1, human IL-2R α-subunit, monomeric, with …; assay: SPR, receptor on CM5, IL-2 analyte, 25°C, kinetic

| Binder | Kd (human FAP-His) [nM] | binding result [1] | Kd [2] [nM] | EC50 [3] [nM] | Kd [4] | Kd [5] |
| --- | --- | --- | --- | --- | --- | --- |
| 4G8 IgG-IL-2 qm (other, IgG with knob-into-hole heavy chains, P329G L234A L235A; one IL-2 qm fused to the C-terminus of the knob heavy chain; also called FAP-targeted 4G8-based IgG-IL-2 qm immunoconjugate) heavy 1: [no letters for about 100 residues][no letters for about 120 residues][no letters for human IgG1 Fc with changes]GGGGSGGGGSGGGGSAPASSSTKKTQLQLEHLLLDLQMILNGINNYKNPKLTRMLTAKFAMPKKATELKHLQCLEEELKPLEEVLNGAQSKNFHLRPRDLISNINVIVLELKGSETTFMCEYADETATIVEFLNRWITFAQSIISTLT heavy 2: [no letters for about 100 residues]GWLGNFDYWGQGTLVTVSSASTKGPSVFPLAPSSKSTSGGTAALGCLVKDYFPEPVTVSWNSGALTSGVHTFPAVLQSSGLYSLSSVVTVPSSSLGTQTYICNVNHKPSNTKVDKKVEPKSCDKTHTCPPCPAPEAAGGPSVFLFPPKPKDTLMISRTPEVTCVVVDVSHEDPEVKFNWYVDGVEVHNAKTKPREEQYNSTYRVVSVLTVLHQDWLNGKEYKCKVSNKALGAPIEKTISKAKGQPREPQVCTLPPSRDELTKNQVSLSCAVKGFYPSDIAVEWESNGQPENNYKTTPPVLDSDGSFFLVSKLTVDKSRWQQGNVFSCSVMHEALHNHYTQKSLSLSPGK light: EIVLTQSPGTLSLSPGERATLSCRASQSVSRSYLAWYQQKPGQAPRLLIIGASTRATGIPDRFSGSGSGTDFTLTISRLEPEDFAVYYCQQGQVIPPTFGQGTKVEIKRTVAAPSVFIFPPSDEQLKSGTASVVCLLNNFYPREAKVQWKVDNALQSGNSQESVTEQDSKDSTYSLSSTLTLSKADYEKHKVYACEVTHQGLSSPVTKSFNRGEC | 0.1 | no binding (tested: 300 nM) | 5.9 | 0.9 |  |  |
| 28H1 IgG-IL-2 qm (other, IgG with knob-into-hole heavy chains, P329G L234A L235A; one IL-2 qm fused to the C-terminus of the knob heavy chain; also called FAP-targeted 28H1-based IgG-IL-2 qm immunoconjugate) heavy 1: EVQLLESGGGLVQPGGSLRLSCAASGFTFSSHAMSWVRQAPGKGLEWVSAIWASGEQYYADSVKGRFTISRDNSKNTLYLQMNSLRAEDTAVYYCAKGWLGNFDYWGQGTLVTVSSASTKGPSVFPLAPSSKSTSGGTAALGCLVKDYFPEPVTVSWNSGALTSGVHTFPAVLQSSGLYSLSSVVTVPSSSLGTQTYICNVNHKPSNTKVDKKV[no letters for human IgG1 Fc with changes]GGGGSGGGGSGGGGSAPASSSTKKTQLQLEHLLLDLQMILNGINNYKNPKLTRMLTAKFAMPKKATELKHLQCLEEELKPLEEVLNGAQSKNFHLRPRDLISNINVIVLELKGSETTFMCEYADETATIVEFLNRWITFAQSIISTLT heavy 2: EVQLLESGGGLVQPGGSLRLSCAASGFTFSSHAMSWVRQAPGKGLEWVSAIWASGEQYYADSVKGRFTISRDNSKNTLYLQMNSLRAEDTAVYYCAKGWLGNFDYWGQGTLVTVSSASTKGPSVFPLAPSSKSTSGGTAALGCLVKDYFPEPVTVSWNSGALTSGVHTFPAVLQSSGLYSLSSVVTVPSSSLGTQTYICNVNHKPSNTKVDKKVEPKSCDKTHTCPPCPAPEAAGGPSVFLFPPKPKDTLMISRTPEVTCVVVDVSHEDPEVKFNWYVDGVEVHNAKTKPREEQYNSTYRVVSVLTVLHQDWLNGKEYKCKVSNKALGAPIEKTISKAKGQPREPQVCTLPPSRDELTKNQVSLSCAVKGFYPSDIAVEWESNGQPENNYKTTPPVLDSDGSFFLVSKLTVDKSRWQQGNVFSCSVMHEALHNHYTQKSLSLSPGK light: EIVLTQSPGTLSLSPGERATLSCRASQSVSRSYLAWYQQKPGQAPRLLIIGASTRATGIPDRFSGSGSGTDFTLTISRLEPEDFAVYYCQQGQVIPPTFGQGTKVEIKRTVAAPSVFIFPPSDEQLKSGTASVVCLLNNFYPREAKVQWKVDNALQSGNSQESVTEQDSKDSTYSLSSTLTLSKADYEKHKVYACEVTHQGLSSPVTKSFNRGEC | 0.175 | no binding (tested: 300 nM) | 6.2 |  |  |  |

Second part, the binder after the results:

| Kd (human FAP-His) [nM] | binding result [1] | Kd [2] [nM] | EC50 [3] [nM] | Kd [4] | Kd [5] | Binder |
| --- | --- | --- | --- | --- | --- | --- |
|  |  |  |  | 19.7 nM and 17.6 nM | 10.6 nM and 10 nM | Naked IL-2 wt, pool 2 (His-tagged, C125A) (ligand, Pool 2 holds more of the smaller (ca. 20 kDa) species; also called naked wild-type IL-2 pool 2; in-house produced wild-type IL-2) not shown |
|  |  |  |  | 30.3 nM and 23.9 nM | 17.4 nM and 16.6 nM | Naked IL-2 wt, pool 1 (His-tagged, C125A) (ligand, Pool 1 holds more of the larger (ca. 22 kDa) species; the pools putatively differ in O-glycosylation; also called naked wild-type IL-2 pool 1; in-house produced wild-type IL-2) not shown |

Several values for one entry are separate records, joined by “and”; a condition that tells them apart may be missing. Equal entries are not always repeated.
